Source: PubChem BioAssay AID488969 (Vanderbilt High Throughput Screening Facility, 2010)
The full ranking holds about 110,000 compounds; the median of “z-score” is about -0.1, and the highest 2% start at about 2. The list shows a part of the results. Active and inactive are the calls of the source.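 The calls were made as follows: active = z-score in the third read window above 3 or below -3; inactive = the rest.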

target: Metabotropic glutamate receptor 8 (Rattus norvegicus) (UniProt P70579); experiment: rat mGluR8 modulators via GIRK flux, primary screen, cell-based, thallium flux, HTS (AID 488969); conditions: HEK293 rat mGluR8, GIRK (G protein-gated inwardly rectifying potassium channel) thallium flux, FluoZin2; at 10 µM; stronger effect = higher value; submaximal glutamate (EC20) added with thallium
UniProt P70579, sequence (P70579 whole entry, looked up): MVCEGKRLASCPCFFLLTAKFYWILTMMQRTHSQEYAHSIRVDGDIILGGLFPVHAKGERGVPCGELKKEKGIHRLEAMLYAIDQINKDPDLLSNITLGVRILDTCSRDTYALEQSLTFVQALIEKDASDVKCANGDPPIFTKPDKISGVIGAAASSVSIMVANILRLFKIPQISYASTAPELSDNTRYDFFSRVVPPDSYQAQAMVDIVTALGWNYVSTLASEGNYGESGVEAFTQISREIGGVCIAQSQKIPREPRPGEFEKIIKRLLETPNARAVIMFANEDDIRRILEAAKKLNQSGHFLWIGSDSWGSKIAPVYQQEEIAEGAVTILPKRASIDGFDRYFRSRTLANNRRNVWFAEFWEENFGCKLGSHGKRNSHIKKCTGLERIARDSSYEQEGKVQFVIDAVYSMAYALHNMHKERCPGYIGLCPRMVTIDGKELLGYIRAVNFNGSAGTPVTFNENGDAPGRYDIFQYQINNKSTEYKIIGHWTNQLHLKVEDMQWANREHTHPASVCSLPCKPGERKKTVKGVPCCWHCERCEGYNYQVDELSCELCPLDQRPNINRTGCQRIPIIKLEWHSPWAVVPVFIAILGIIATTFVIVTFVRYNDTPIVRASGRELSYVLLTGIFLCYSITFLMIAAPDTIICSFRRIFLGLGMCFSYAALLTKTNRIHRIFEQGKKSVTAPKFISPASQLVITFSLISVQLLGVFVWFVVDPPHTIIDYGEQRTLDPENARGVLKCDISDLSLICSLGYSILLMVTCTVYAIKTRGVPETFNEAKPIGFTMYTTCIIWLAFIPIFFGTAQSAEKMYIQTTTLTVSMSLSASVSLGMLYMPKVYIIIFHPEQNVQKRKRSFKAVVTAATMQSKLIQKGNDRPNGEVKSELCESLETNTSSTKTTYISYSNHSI

Row | Compound | z-score
1 | CN(Cc1ccccc1)C(=O)CN1C(=O)C2C3C=CC(C3)C2C1=O (stereo unspecified) | 0.193
2 | CC(C)(C)c1cc(CN2CCC(O)CC2)cc(C(C)(C)C)c1O | 0.942
3 | CCOc1ccc(OCCn2ccnc2)cc1 | -0.316
4 | COc1cccc(CNC(=O)C2CCCN(c3nc4ccccc4o3)C2)c1 (stereo unspecified) | -0.0116
5 | Cc1cccnc1NC(=O)CCCN1C(=O)c2ccccc2C1=O | -0.144
6 | Cc1ccc(C(=O)NCCSc2ccc(Cl)cc2)cc1S(=O)(=O)Nc1ccccc1 | -0.43
7 | O=C(OCc1ccccc1Cl)c1ccc(-n2cnnc2)cc1 | 0.0628
8 | COc1ccc(C2CC(c3ccccc3)=NN2C(=O)COC(=O)c2cc(S(=O)(=O)N3CCOCC3)ccc2Cl)cc1 (stereo unspecified) | 0.254
9 | CCOc1ccccc1OCCOCCN1CC(C)OC(C)C1 (stereo unspecified) | 0.466
10 | CCN(Cc1nc2ccccc2c(=O)[nH]1)Cc1cc(=O)oc2cc(OC)ccc12 | -0.0732
11 | Cc1ccc2occ(CN3CCN(Cc4ccccc4)CC3)c(=O)c2c1 | 0.207
12 | O=C1CN=C(Nc2ccc(Cl)cc2)N1c1ccccc1 | -0.0445
13 | CC12CCC(C(=O)Nc3ccccc3)(C/C1=N\O)C2(C)C (stereo unspecified) | -0.345
14 | Cc1ccc(C(=O)C(OC(=O)CCC(=O)Nc2cccc(C)c2)c2ccccc2)cc1 (stereo unspecified) | -0.312
15 | O=C(NNC(=O)C1[C@H]2CCCC[C@@H]12)NC1CCCCC1 (stereo partly specified) | -0.0928
16 | COC(=O)C(C(=O)Nc1cccc(C)n1)C1CCCCCC1 (stereo unspecified) | 1.35
17 | COc1cc(NC(=S)NC(=O)c2ccccc2F)ccc1NC(=O)c1ccco1 | 0.553
18 | O=C(Nc1nccs1)c1cc(S(=O)(=O)N2CCOCC2)c(Cl)cc1Cl | 0.596
19 | CCOc1ccc(NC(C(=O)Nc2cccc(C(C)=O)c2)c2ccccc2)cc1 (stereo unspecified) | 0.423

Row | Compound | z-score
20 | CCOc1cccc(C(=O)Nc2ccccc2N2CCN(C(=O)C(C)C)CC2)c1 | -0.29
21 | Cc1cc(=O)oc(C)c1C(=O)N1CCN(C)CC1 | 0.384
22 | CCN1C(=O)/C(=C/c2cnn(C)c2C)SC1=S | -0.194
23 | CC1=C(C(=O)NC2CCC(C)CC2)C2(CCC(C)CC2)OC1=O (stereo unspecified) | -0.759
24 | O=C(Nc1ccc(F)cc1)C1C(c2ccccc2)C1(Cl)Cl (stereo unspecified) | 0.315
25 | CC(C)CC(=O)CN1C(=O)C2(OCCO2)c2ccccc21 | active: 6.5
26 | Cc1ccc(NC(=S)N(CCCN2CCOCC2)Cc2ccccn2)cc1Cl | -0.928
27 | CCOC(=O)c1c(CN2CCCCC2C)oc2ccc(OC)cc12 (stereo unspecified) | -1.99
28 | COc1ccc(NC(=O)Nc2ccc(N(C)C)cc2)cc1 | -0.0792
29 | COc1ccccc1OCCOc1ccc(C(=O)c2ccccc2)cc1 | 1.04
30 | O=S(=O)(N1CCCCCC1)N1CCN(S(=O)(=O)N2CCOCC2)CC1 | 0.109
31 | CN1CCN(c2ccc(S(=O)(=O)N3CCCCC3)cc2NC(=O)Cc2ccccc2F)CC1 | -0.245
32 | O=C(Nc1ccc2nc3n(c(=O)c2c1)CCCC3)c1ccccc1[N+](=O)[O-] | -0.424
33 | O=C(CCc1nc2cccnc2n1Cc1ccccc1)NCCc1ccc(Cl)cc1 | -0.975
34 | O=C(CSc1nnc(-c2cccc(Cl)c2)o1)Nc1ccc2c(c1)OCCO2 | -0.0175
35 | Cc1nc(=O)c(-c2ccccc2)c(C)n1-c1cccc(C(=O)O)c1 | 1.11
36 | O=C(O)CC(Cn1[nH]nnc1=S)c1ccccc1 (stereo unspecified) | -0.0932
37 | COc1ccc(CC(=O)Nc2ccc3nc(C)sc3c2)cc1OC | 0.0989
38 | COc1cc2nc(SCc3ccc(C(F)(F)F)cc3)n(Cc3cccs3)c(=N)c2cc1OC | 0.0241

Row | Compound | z-score
39 | CC(=O)Nc1ccc(Cl)cc1C(=O)O | -2.27
40 | O=[N+]([O-])c1ccc(N2CCCCCC2)c(S(=O)(=O)N2CCCCC2)c1 | 0.0841
41 | COC(=O)c1cc(COc2ccc3ccc(=O)oc3c2)c(C)o1 | 0.2
42 | CCOC(=O)NC(Nc1ccc(S(N)(=O)=O)cc1)(C(=O)OCC)C(F)(F)F (stereo unspecified) | 0.00287
43 | CCCCSC(=S)NC1CCS(=O)(=O)C1 (stereo unspecified) | -0.0934
44 | Cc1ccc(-c2nnc(CSc3nncn3N)o2)cc1 | -0.286
45 | O=C1c2ccccc2NC(c2ccccc2Cl)N1N=C1CCCCCC1 (stereo unspecified) | -0.177
46 | COC(=O)C1C2C=CC3(CN(C4CCCC4)C(=O)C13)O2 (stereo unspecified) | -1.65
47 | COc1ccc(-c2ccc(/C=C3/C(=N)N4C=CSC4=NC3=O)o2)c([N+](=O)[O-])c1 | 0.455
48 | CCOc1ccc(NC(=O)Cn2cncc2-c2ccc([N+](=O)[O-])cc2)cc1 | -0.224
49 | c1ccc(CNc2ncnc3sc4c(c23)CCC4)nc1 | -0.648
50 | COc1cc(/C=C2/C(=N)N3C=CSC3=NC2=O)ccc1OCCCOc1ccccc1C | 0.0419
51 | CCn1c(SCC(=O)OC)nc2sc3c(c2c1=O)CCC3 | -0.399
52 | CCn1ncc(CNC(=O)CCCSc2nc(-c3ccco3)cc(C(F)(F)F)n2)c1C | -1.05
53 | Nc1ccc(N2CCN(C(=O)c3ccco3)CC2)cc1 | 0.119
54 | O=C(/C=C/Nc1ccccc1F)c1cccs1 | -0.0967
55 | O=C(Nc1ccccc1)Nc1ccc(S(=O)(=O)N2CCCCC2)cc1 | -0.197
56 | CCC(CC)C(=O)Nc1cccc(/C(C)=N/NC(=O)c2c(Br)cnn2C)c1 | -0.0557
